Source: paper PMC6212790
This is one part of the list. At the low end of the ranking the order means little.

What follows are sequences tested against T1, GST-Rok (full length) (UniProt O34857) (assay: protein binding microarray). Conditions: Rok is a gene silencer of Bacillus subtilis; high values mean tight binding; most listed sequences are background and not binding sites; double strand, one strand shown.
T1 sequence: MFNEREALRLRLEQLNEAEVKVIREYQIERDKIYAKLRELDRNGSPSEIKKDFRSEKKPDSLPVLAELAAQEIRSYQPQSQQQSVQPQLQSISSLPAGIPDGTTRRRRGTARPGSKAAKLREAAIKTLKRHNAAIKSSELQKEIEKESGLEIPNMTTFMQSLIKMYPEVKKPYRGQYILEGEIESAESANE
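Further: rank score from −0.5 (least bound) to 0.5 (best bound).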

| Sequence | binding signal |
| --- | --- |
| CGCTTCTA | 0.0526 E-score |
| AACTATTG | 0.378 E-score |
| ACCGCAGG | -0.0907 E-score |
| CAAATGCC | -0.104 E-score |
| TGGTATAA | 0.349 E-score |
| CCCGGAAA | -0.265 E-score |
| GAACGGCC | -0.285 E-score |
| ATGACCCC | -0.171 E-score |
| TGCACTAA | 0.0805 E-score |
| CATGAGTC | -0.193 E-score |
| ACAGAGTA | 0.18 E-score |
| CAACTGAA | -0.0305 E-score |
| CCGTAAGC | -0.0766 E-score |
| TGGTACCA | 0.193 E-score |
| GGCTTAAA | -0.231 E-score |
| GCAATCAA | 0.134 E-score |
| ACTCCGCT | -0.165 E-score |
| AGGTTTCC | -0.176 E-score |
| CAAGGTTA | -0.0876 E-score |
| CCGAGTAA | -0.0984 E-score |
| GTACGGAC | -0.173 E-score |
| AGCCCAGC | -0.348 E-score |
| GAAGACAA | -0.0645 E-score |
| ATCCACCG | -0.155 E-score |

| Sequence | binding signal |
| --- | --- |
| CGTGATAC | 0.162 E-score |
| ATCTCTCC | -0.305 E-score |
| ACGGGGAT | -0.0788 E-score |
| AGCCGGTG | -0.286 E-score |
| GGCTGTGA | 0.0813 E-score |
| GAAGAGTC | -0.192 E-score |
| CCACTCAA | -0.0115 E-score |
| GCAGGTGA | -0.153 E-score |
| ACACCGAC | -0.161 E-score |
| CGCGGATA | 0.00827 E-score |
| ATTACTCA | 0.146 E-score |
| TGAAGGAA | -0.208 E-score |
| AGAAACTA | 0.412 E-score |
| GACCTGCC | -0.309 E-score |
| CTTGATCA | -0.0908 E-score |
| TCCCAAAA | -0.171 E-score |
| GAGGCGGA | -0.273 E-score |
| ATCCAGAC | 0.0452 E-score |
| GACAGATC | 0.00698 E-score |
| CTTATCTC | 0.119 E-score |
| AATTGCTC | 0.0773 E-score |
| GTAAATTA | 0.383 E-score |
| GGGGAAGA | -0.302 E-score |
| CGTCTGGC | -0.12 E-score |

| Sequence | binding signal |
| --- | --- |
| ACACTAGC | 0.0206 E-score |
| GTACAAGA | 0.152 E-score |
| ATATGATA | 0.179 E-score |
| ACAGATCA | -0.0542 E-score |
| ACCCGTCG | -0.107 E-score |
| ACGACATC | 0.0179 E-score |
| TGGGGGAA | -0.34 E-score |
| TCAAAGGA | -0.135 E-score |
| CCGCAGTA | -0.0372 E-score |
| AGGGTTAA | 0.0656 E-score |
| AGCGCTCC | -0.178 E-score |
| ATATGAAA | 0.222 E-score |
| AGCAAGAA | 0.052 E-score |
| CTCGCCTC | -0.304 E-score |
| GTAGGCGA | -0.178 E-score |
| CCGAATGA | 0.0453 E-score |
| CCACTGCC | -0.199 E-score |
| TAGCTTGA | 0.12 E-score |
| GGGGCGTA | -0.321 E-score |
| GGCGGATA | -0.136 E-score |
| CAGGGCTC | -0.282 E-score |
| ACATCGGT | -0.0358 E-score |
| AGTCTTTC | -0.0288 E-score |
| CGCTGGAG | -0.0681 E-score |

| Sequence | binding signal |
| --- | --- |
| CCGTTTAG | -0.143 E-score |
| GACAGTCA | -0.00771 E-score |
| ATGGTGTA | 0.264 E-score |
| AAAAACTC | 0.0197 E-score |
| GATTTCAC | -0.148 E-score |
| AACAACGC | 0.243 E-score |
| GCTCATGA | -0.144 E-score |
| GGTGAGTA | 0.13 E-score |
| CGGGTGTA | -0.149 E-score |
| ACTCATTG | 0.241 E-score |
| CGGAACAC | -0.154 E-score |
| AACCGACT | -0.0188 E-score |
| AACTCAGA | 0.108 E-score |
| GCGGTTGA | -0.212 E-score |
| ATGACACA | 0.106 E-score |
| GCTGCCCC | -0.344 E-score |
| ATTATGCC | 0.099 E-score |
| ACAGATAC | 0.221 E-score |
| GAAGCGCA | -0.153 E-score |
| CCCCGAAA | -0.2 E-score |
| CACGCTAC | 0.118 E-score |
| AGCGAAGA | -0.0213 E-score |
